Common to all, as to assay: protein-binding microarray (PBM)
Common to all, as to conditions: PBM: ~300 nM protein, 6 mM HEPES pH 7.8, 80 mM KCl, 0.5 mM EDTA, 0.5 mM EGTA, 6% glycerol, 35 ng/ul poly-dIdC, 1% milk, 1 h, room temperature; Ap Aiptasia and Nv Nematostella (sea anemones) / Co Capsaspora / Aq Amphimedon (sponge) / Dm Drosophila / Hu human; RHD is the Rel homology domain; high values mean tight binding; most listed sequences are background and not binding sites; double strand, one strand shown

The target in one assay is T1, GST-Ap-NF-kB RHD (UniProt A0A913YAJ5).
T1 sequence: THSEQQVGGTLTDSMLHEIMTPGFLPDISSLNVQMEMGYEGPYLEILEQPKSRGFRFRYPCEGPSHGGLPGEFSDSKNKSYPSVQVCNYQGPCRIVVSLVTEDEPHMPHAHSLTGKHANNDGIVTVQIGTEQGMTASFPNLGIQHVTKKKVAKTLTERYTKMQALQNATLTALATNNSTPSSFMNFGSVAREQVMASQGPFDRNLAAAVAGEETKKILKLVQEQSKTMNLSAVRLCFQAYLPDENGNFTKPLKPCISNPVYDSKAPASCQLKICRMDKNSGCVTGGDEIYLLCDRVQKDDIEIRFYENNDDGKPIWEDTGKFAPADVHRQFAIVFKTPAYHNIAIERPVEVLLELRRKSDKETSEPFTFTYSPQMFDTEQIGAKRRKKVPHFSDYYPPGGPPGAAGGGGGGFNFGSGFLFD

The target of another assay is T2, GST-Co-NF-kB (UniProt F1ARL5).
T2 sequence: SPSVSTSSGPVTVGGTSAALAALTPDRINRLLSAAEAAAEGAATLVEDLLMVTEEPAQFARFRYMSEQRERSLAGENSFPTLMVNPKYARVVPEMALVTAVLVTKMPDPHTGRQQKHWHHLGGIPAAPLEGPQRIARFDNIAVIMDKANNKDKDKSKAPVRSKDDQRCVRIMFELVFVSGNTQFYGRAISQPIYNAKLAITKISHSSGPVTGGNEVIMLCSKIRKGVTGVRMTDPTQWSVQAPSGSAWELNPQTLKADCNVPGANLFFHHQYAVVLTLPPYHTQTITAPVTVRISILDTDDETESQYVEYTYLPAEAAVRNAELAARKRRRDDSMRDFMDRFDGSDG

Another assay addresses T3, GST-Dm-Relish (UniProt Q94527).
T3 sequence: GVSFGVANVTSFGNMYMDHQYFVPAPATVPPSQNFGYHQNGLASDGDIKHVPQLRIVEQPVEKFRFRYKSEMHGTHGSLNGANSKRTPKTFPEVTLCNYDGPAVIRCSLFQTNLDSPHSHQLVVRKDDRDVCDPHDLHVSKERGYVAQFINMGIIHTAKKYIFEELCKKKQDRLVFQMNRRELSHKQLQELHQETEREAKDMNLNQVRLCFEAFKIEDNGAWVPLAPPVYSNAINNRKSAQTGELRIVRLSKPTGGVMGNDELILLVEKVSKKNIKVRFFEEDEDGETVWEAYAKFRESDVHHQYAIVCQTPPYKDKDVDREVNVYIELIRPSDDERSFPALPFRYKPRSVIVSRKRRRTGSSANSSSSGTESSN

This is a selection; strong and weak results do not stand in their true shares. The list includes weakly bound sequences.

As to “CCGATTAACATCAAGGGGGGATGTGATGTTAATCGGGTCTTGATTCGCTTGACGCTGCTG”, the binding signal was determined as 5.69 z-score with GST-Ap-NF-kB RHD and 4.75 z-score in the assay with GST-Co-NF-kB.
With “CCGATTAACATCAGGATAGCCCCTGATGTTAATCGGGTCTTGATTCGCTTGACGCTGCTG”, the binding signal turned out to be 4 z-score with GST-Ap-NF-kB RHD and 0.751 z-score with GST-Co-NF-kB.
Taken in the same sequence, the figures for “CCGATTAACATCAGGAAAAAACCTGATGTTAATCGGGTCTTGATTCGCTTGACGCTGCTG” were 0.158 z-score and -0.614 z-score.
Take “CCGATTAACATCACGGGACTCCCTGATGTTAATCGGGTCTTGATTCGCTTGACGCTGCTG”: the binding signal in the assay with GST-Ap-NF-kB RHD was 5.53 z-score; with GST-Co-NF-kB, 1.53 z-score.
“CCGATTAACATCAGGACCTCCCCTGATGTTAATCGGGTCTTGATTCGCTTGACGCTGCTG”: the binding signal with GST-Ap-NF-kB RHD was 5.62 z-score; in the assay with GST-Co-NF-kB, 2.53 z-score; with GST-Dm-Relish, 5.19 z-score.
For the sequence “CCGATTAACATCACATTCCCCCCTGATGTTAATCGGGTCTTGATTCGCTTGACGCTGCTG”, the binding signal in the assay with GST-Ap-NF-kB RHD is 6.91 z-score; with GST-Co-NF-kB, 8.44 z-score; with GST-Dm-Relish it was 4.58 z-score.
Consider “CCGATTAACATCAGAGTCCCCCCTGATGTTAATCGGGTCTTGATTCGCTTGACGCTGCTG”, for which the binding signal is 5.97 z-score in the assay with GST-Ap-NF-kB RHD, 7.33 z-score in the assay with GST-Co-NF-kB and 5.14 z-score with GST-Dm-Relish.
With “CCGATTAACATCAGGGGGGACGATGATGTTAATCGGGTCTTGATTCGCTTGACGCTGCTG”, the binding signal came to 5.01 z-score with GST-Ap-NF-kB RHD, 5.85 z-score with GST-Co-NF-kB and 3.77 z-score with GST-Dm-Relish.
With “CCGATTAACATCAGGGAGTGCCCTGATGTTAATCGGGTCTTGATTCGCTTGACGCTGCTG”, the binding signal with GST-Ap-NF-kB RHD turned out to be 2.83 z-score; with GST-Co-NF-kB it was 0.582 z-score; with GST-Dm-Relish it was 3.85 z-score.
“CCGATTAACATCAAGGAACCCCCTGATGTTAATCGGGTCTTGATTCGCTTGACGCTGCTG”: the binding signal turned out to be 8.43 z-score with GST-Ap-NF-kB RHD, 2.03 z-score with GST-Co-NF-kB and 10.4 z-score in the assay with GST-Dm-Relish.
“CCGATTAACATCAGGATTTTACCTGATGTTAATCGGGTCTTGATTCGCTTGACGCTGCTG”: the binding signal with GST-Ap-NF-kB RHD is 0.677 z-score; in the assay with GST-Co-NF-kB, -0.257 z-score; in the assay with GST-Dm-Relish, 3.21 z-score.
For the sequence “CCGATTAACATCAGGGGCCGTAATGATGTTAATCGGGTCTTGATTCGCTTGACGCTGCTG”, the binding signal was found to be 1.66 z-score in the assay with GST-Ap-NF-kB RHD, 0.38 z-score with GST-Co-NF-kB and 0.71 z-score with GST-Dm-Relish.
“CCGATTAACATCAATGGGATTCCTGATGTTAATCGGGTCTTGATTCGCTTGACGCTGCTG”: the figures for the binding signal with GST-Ap-NF-kB RHD, with GST-Co-NF-kB and in the assay with GST-Dm-Relish were 1.54 z-score, 0.943 z-score and 7.4 z-score, respectively.
Take “CCGATTAACATCAATACCCCCCCTGATGTTAATCGGGTCTTGATTCGCTTGACGCTGCTG”: the binding signal with GST-Ap-NF-kB RHD was 6.7 z-score; in the assay with GST-Co-NF-kB, 6.7 z-score; with GST-Dm-Relish it was 5.66 z-score.
For the sequence “CCGATTAACATCAGGGACAAAAATGATGTTAATCGGGTCTTGATTCGCTTGACGCTGCTG”, the figures for the binding signal with GST-Ap-NF-kB RHD, in the assay with GST-Co-NF-kB and with GST-Dm-Relish were 2 z-score, 2.39 z-score and 0.953 z-score, respectively.
In the case of “CCGATTAACATCAGGGAAGCACCTGATGTTAATCGGGTCTTGATTCGCTTGACGCTGCTG”, the results for the binding signal in the assay with GST-Ap-NF-kB RHD, with GST-Co-NF-kB and with GST-Dm-Relish were 4.67 z-score, 0.793 z-score and 9.38 z-score, respectively.
Taken in the same sequence, the figures for “CCGATTAACATCAGGGGAAACCATGATGTTAATCGGGTCTTGATTCGCTTGACGCTGCTG” were 6.6 z-score, 8.24 z-score and 6.18 z-score.
With “CCGATTAACATCAGCCCCCCGTCTGATGTTAATCGGGTCTTGATTCGCTTGACGCTGCTG”, the binding signal was 3.16 z-score with GST-Ap-NF-kB RHD, 3 z-score with GST-Co-NF-kB and 3.83 z-score with GST-Dm-Relish.
With “CCGATTAACATCAGGAGATACCCTGATGTTAATCGGGTCTTGATTCGCTTGACGCTGCTG”, the binding signal with GST-Ap-NF-kB RHD turned out to be 3.04 z-score; with GST-Co-NF-kB, 0.793 z-score; in the assay with GST-Dm-Relish it was 3.18 z-score.
With “CCGATTAACATCAAGCCTGTCCCTGATGTTAATCGGGTCTTGATTCGCTTGACGCTGCTG”, the binding signal in the assay with GST-Ap-NF-kB RHD is 2.01 z-score; with GST-Co-NF-kB, 0.08 z-score; with GST-Dm-Relish it was -0.195 z-score.
“CCGATTAACATCAGGGGGAGTGATGATGTTAATCGGGTCTTGATTCGCTTGACGCTGCTG”: the results for the binding signal in the assay with GST-Ap-NF-kB RHD, in the assay with GST-Co-NF-kB and in the assay with GST-Dm-Relish were 5.05 z-score, 3.71 z-score and 1.66 z-score, respectively.
Take “CCGATTAACATCAACAGGGAAAATGATGTTAATCGGGTCTTGATTCGCTTGACGCTGCTG”: the binding signal in the assay with GST-Ap-NF-kB RHD is 3.23 z-score; in the assay with GST-Co-NF-kB it was 2.91 z-score; with GST-Dm-Relish, 1.32 z-score.
Take “CCGATTAACATCACGTAAGGGATTGATGTTAATCGGGTCTTGATTCGCTTGACGCTGCTG”: the binding signal in the assay with GST-Ap-NF-kB RHD turned out to be 0.96 z-score; with GST-Co-NF-kB it was 0.529 z-score; in the assay with GST-Dm-Relish, 0.699 z-score.
Taken in the same sequence, the figures for “CCGATTAACATCAGGGGAATGCATGATGTTAATCGGGTCTTGATTCGCTTGACGCTGCTG” were 5.82 z-score, 5.53 z-score and 3.2 z-score.
As for “CCGATTAACATCACAGTTCCCCCTGATGTTAATCGGGTCTTGATTCGCTTGACGCTGCTG”, the binding signal is 6.94 z-score in the assay with GST-Ap-NF-kB RHD, 8.18 z-score with GST-Co-NF-kB and 3.79 z-score with GST-Dm-Relish.
For the sequence “CCGATTAACATCAAAAATTACCATGATGTTAATCGGGTCTTGATTCGCTTGACGCTGCTG”, the values for the binding signal with GST-Ap-NF-kB RHD, with GST-Co-NF-kB and with GST-Dm-Relish were 0.657 z-score, -0.0195 z-score and 3.14 z-score, respectively.
Taken in the same sequence, the figures for “CCGATTAACATCAGGGGATGAACTGATGTTAATCGGGTCTTGATTCGCTTGACGCTGCTG” were 2.44 z-score, 3.23 z-score and 7.62 z-score.
As for “CCGATTAACATCAAGGAATCCCCTGATGTTAATCGGGTCTTGATTCGCTTGACGCTGCTG”, the binding signal with GST-Ap-NF-kB RHD is 9.79 z-score; with GST-Co-NF-kB, 3.63 z-score; in the assay with GST-Dm-Relish it was 10.1 z-score.
On to “CCGATTAACATCAGGACATACCCTGATGTTAATCGGGTCTTGATTCGCTTGACGCTGCTG”, for which the binding signal was determined as 1.92 z-score with GST-Ap-NF-kB RHD, 0.242 z-score with GST-Co-NF-kB and 2.79 z-score in the assay with GST-Dm-Relish.

The values above are taken from publication PMC5700166.
